Numbering of substitutions follows the chain as printed; changes in the protein carry UniProt numbers. Some of the results follow.
T1: RBFOX1 RRM RbFoxmut (Fox-RRM*) (Homo sapiens, UniProt Q9NWB1 109-208, R118D;E147R;N151S;E152T)
T1 sequence: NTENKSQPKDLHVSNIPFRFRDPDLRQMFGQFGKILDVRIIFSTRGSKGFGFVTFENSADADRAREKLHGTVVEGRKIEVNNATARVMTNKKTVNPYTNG

B1: AGUUUUC (DNA:RNA)
RNA: GGGAGACCGGAAUUCAGAUUGUCCAGUUUUCUUAAAUCCCGUCGUAGCCACCA
DNA 1: CAATCTGAATTCCGGTCTCCC
DNA 2: TGGTGGCTACGACGGGATT
B2: UAUCAGC (DNA:RNA)
RNA: B1 RNA with A25U, G26A, U28C, U29A, U30G
DNA 1: CAATCTGAATTCCGGTCTCCC
DNA 2: TGGTGGCTACGACGGGATT
B3: UUUUGGA (DNA:RNA)
RNA: B1 RNA with A25U, G26U, U29G, U30G, C31A
DNA 1: CAATCTGAATTCCGGTCTCCC
DNA 2: TGGTGGCTACGACGGGATT
B4: UUGAUUC (DNA:RNA)
RNA: B1 RNA with A25U, G26U, U27G, U28A
DNA 1: CAATCTGAATTCCGGTCTCCC
DNA 2: TGGTGGCTACGACGGGATT
B5: CCGUCGA (DNA:RNA)
RNA: B1 RNA with A25C, G26C, U27G, U29C, U30G, C31A
DNA 1: CAATCTGAATTCCGGTCTCCC
DNA 2: TGGTGGCTACGACGGGATT
B6: GAGUACA (DNA:RNA)
RNA: B1 RNA with A25G, G26A, U27G, U29A, U30C, C31A
DNA 1: CAATCTGAATTCCGGTCTCCC
DNA 2: TGGTGGCTACGACGGGATT
B7: CGAAGCU (DNA:RNA)
RNA: B1 RNA with A25C, U27A, U28A, U29G, U30C, C31U
DNA 1: CAATCTGAATTCCGGTCTCCC
DNA 2: TGGTGGCTACGACGGGATT
B8: GGCACUA (DNA:RNA)
RNA: B1 RNA with A25G, U27C, U28A, U29C, C31A
DNA 1: CAATCTGAATTCCGGTCTCCC
DNA 2: TGGTGGCTACGACGGGATT
B9: CCGCCUA (DNA:RNA)
RNA: B1 RNA with A25C, G26C, U27G, U28C, U29C, C31A
DNA 1: CAATCTGAATTCCGGTCTCCC
DNA 2: TGGTGGCTACGACGGGATT
B10: CCCGCUA (DNA:RNA)
RNA: B1 RNA with A25C, G26C, U27C, U28G, U29C, C31A
DNA 1: CAATCTGAATTCCGGTCTCCC
DNA 2: TGGTGGCTACGACGGGATT
B11: CCAUCUA (DNA:RNA)
RNA: B1 RNA with A25C, G26C, U27A, U29C, C31A
DNA 1: CAATCTGAATTCCGGTCTCCC
DNA 2: TGGTGGCTACGACGGGATT
B12: GCAUGUA (DNA:RNA)
RNA: B1 RNA with A25G, G26C, U27A, U29G, C31A
DNA 1: CAATCTGAATTCCGGTCTCCC
DNA 2: TGGTGGCTACGACGGGATT
B13: AGCGCCA (DNA:RNA)
RNA: B1 RNA with U27C, U28G, U29C, U30C, C31A
DNA 1: CAATCTGAATTCCGGTCTCCC
DNA 2: TGGTGGCTACGACGGGATT
B14: UGGAUCC (DNA:RNA)
RNA: B1 RNA with A25U, U27G, U28A, U30C
DNA 1: CAATCTGAATTCCGGTCTCCC
DNA 2: TGGTGGCTACGACGGGATT
B15: CUUAUCU (DNA:RNA)
RNA: B1 RNA with A25C, G26U, U28A, U30C, C31U
DNA 1: CAATCTGAATTCCGGTCTCCC
DNA 2: TGGTGGCTACGACGGGATT
B16: UCGAGAA (DNA:RNA)
RNA: GGGAGACCGGAAUUCAGAUUGUCCUCGAGAAUUAAAUCCCGUCGUAGCCACCA
DNA 1: CAATCTGAATTCCGGTCTCCC
DNA 2: TGGTGGCTACGACGGGATT
B17: UCCUACC (DNA:RNA)
RNA: B1 RNA with A25U, G26C, U27C, U29A, U30C
DNA 1: CAATCTGAATTCCGGTCTCCC
DNA 2: TGGTGGCTACGACGGGATT
B18: UACGGAU (DNA:RNA)
RNA: B16 RNA with C26A, G27C, A28G, A31U
DNA 1: CAATCTGAATTCCGGTCTCCC
DNA 2: TGGTGGCTACGACGGGATT
B19: AUGAUGU (DNA:RNA)
RNA: B1 RNA with G26U, U27G, U28A, U30G, C31U
DNA 1: CAATCTGAATTCCGGTCTCCC
DNA 2: TGGTGGCTACGACGGGATT
B20: UUCCAGC (DNA:RNA)
RNA: B1 RNA with A25U, G26U, U27C, U28C, U29A, U30G
DNA 1: CAATCTGAATTCCGGTCTCCC
DNA 2: TGGTGGCTACGACGGGATT

target: T1, RBFOX1 RRM RbFoxmut (Fox-RRM*); assay: EMSA; HiTS-Eq, 1 nM pool, 10 min; buffer printed only for the single-RNA assays: 10 mM Tris pH 7.5, 150 mM NaCl, 3.4 mM EDTA, 0.001% NP-40, 30 C; details: tags: His6 N-terminal (pET28a); label: 5' 32P
Procedure, shortened: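 A pool of RNA with 7 randomized nucleotides, 5′-radiolabelled and with DNA-annealed flanks, was equilibrated at 1 nM for 10 min in 50 µL with purified RbFox RRM, wild type or mutant, across increasing protein concentrations. Free RNA was separated by 8% native PAGE, excised, reverse-transcribed, barcoded by PCR and sequenced. Relative association constants were obtained from read-count changes of each RNA species versus the control reaction and normalised to the cognate motif.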

Row | Binder | binding signal
1 | B1 | 0.0747 KA relative to UGCAUGU
2 | B2 | 0.0726 KA relative to UGCAUGU
3 | B3 | 0.0501 KA relative to UGCAUGU
4 | B4 | 0.196 KA relative to UGCAUGU
5 | B5 | 0.0785 KA relative to UGCAUGU
6 | B6 | 0.0764 KA relative to UGCAUGU
7 | B7 | 0.0941 KA relative to UGCAUGU
8 | B8 | 0.0618 KA relative to UGCAUGU
9 | B9 | 0.0844 KA relative to UGCAUGU
10 | B10 | 0.11 KA relative to UGCAUGU
11 | B11 | 0.092 KA relative to UGCAUGU
12 | B12 | 1.04 KA relative to UGCAUGU
13 | B13 | 0.107 KA relative to UGCAUGU
14 | B14 | 0.211 KA relative to UGCAUGU
15 | B15 | 0.074 KA relative to UGCAUGU
16 | B16 | 0.116 KA relative to UGCAUGU
17 | B17 | 0.122 KA relative to UGCAUGU
18 | B18 | 0.0871 KA relative to UGCAUGU
19 | B19 | 0.156 KA relative to UGCAUGU
20 | B20 | 0.0966 KA relative to UGCAUGU
